# Data from the supplement of paper PMC12340641.
# The full ranking holds about 1,000 compounds; the median of “relative growth in counter assay (no AraC = 100%, AraC + DMSO = 0%)” is about -1.1, and the highest 2% start at about 20. Some of the results follow.
# Tested on: HEK293FT dCK*-only
# Experiment: relative growth in counter assay (no AraC = 100%, AraC + DMSO = 0%); higher = more growth rescue independent of IKZF1
# Conditions: compound concentration: 5 uM; AraC concentration: 0.3 uM; overnight pretreatment + 4 days AraC
# Procedure: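 Growth recovery screen of the molecular-glue-like (Specs) library. HEK293FT cells expressing a dCK*-IKZF1 fusion (primary) or dCK* alone (counter) were pretreated overnight with compound at 5 uM, then given 0.3 uM AraC for 4 days. Hoechst nuclei were counted by imaging. Primary: normalised to pomalidomide (100%) and DMSO (0%), mean of 2 replicates. Counter: normalised to no-AraC (100%) and AraC+DMSO (0%), single replicate.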
row,SMILES,relative growth in counter assay
1,O=C(Nc1ccc(S(=O)(=O)Nc2ncccn2)cc1)c1ccc([N+](=O)[O-])cc1,-6.83%
2,COc1ccc(-c2csc(Nc3ccc(S(=O)(=O)Nc4nc(C)cc(C)n4)cc3)n2)cc1,-6.81%
3,CCCCc1cnc(Nc2cccc(C3CCN(C(=O)C(C)(C)NC(=O)OC(C)(C)C)CC3)n2)s1,-22%
4,Cc1cnc(Nc2cccc(C3CN(C(=O)C4CC4c4ccc(Cl)cc4)CCO3)n2)s1 (stereo not given),28.7%
5,COc1ccccc1N1C(=O)c2ccc(Oc3ccc(N)cc3)cc2C1=O,11.9%
6,NC(=O)CN1CCCC1c1csc(Nc2ccccn2)n1 (stereo not given),-5.04%
7,COc1ccc(C(C)(C)C(=O)N2CCCC2c2cccc(Nc3nc(C)cs3)n2)cc1 (stereo not given),11%
8,Cc1ccnc(NS(=O)(=O)c2ccc(NC(=O)C3c4ccccc4Oc4ccccc43)cc2)n1,-3.45%
9,CCCc1cnc(Nc2cccc(C3CCN(C(=O)C4CCCCN4CCCO)CC3)n2)s1 (stereo not given),-21.2%
10,COCCNC(=O)C1(c2cccc(Nc3ncc(C)s3)n2)CCN(C(=O)C2CCCCC2)CC1,-2.36%
11,Cc1csc(Nc2cccc(C3CN(C(=O)COc4c(C)cccc4C)CCO3)n2)n1 (stereo not given),1.27%
12,Cc1ccc(C)c2c1[nH]c1nc(SCC(=O)Nc3cccc(F)c3)nnc12,6.13%
13,Cc1ccc(Nc2nc(C3CCCN(CC(N)=O)C3)cs2)nc1 (stereo not given),3.7%
14,COc1ccc(CCC(=O)N2CCOC(c3cccc(Nc4nc(C)cs4)n3)C2)cc1 (stereo not given),19.5%
15,CC(=O)Nc1ccc(Oc2ccc3c(c2)C(=O)N(c2ccc4ccccc4c2)C3=O)cc1,-7.95%
16,Cc1cnc(Nc2cccc(CC3CCN(C(=O)c4cccc(Cl)c4)CC3)n2)s1,-18.2%
17,COc1ccccc1CCC(=O)N1CCC(c2cccc(Nc3ncc(C)s3)n2)CC1,10.2%
18,Cc1cc(C)nc(NS(=O)(=O)c2ccc(Nc3nc(-c4c(C)nc5ccccn45)cs3)cc2)n1,-0.5%
19,CCOc1ccccc1C(=O)Nc1ccc(S(=O)(=O)Nc2nc(C)cc(C)n2)cc1,1.48%
20,Cc1nc(Nc2cccc(C3CCCN3C(=O)COc3ccc(F)cc3)n2)sc1C (stereo not given),-0.52%
21,O=C(Nc1ccc(S(=O)(=O)Nc2ncccn2)cc1)c1cncc(Br)c1,12.3%
22,CC(C)(C)N1CC(C(=O)Nc2ccc(S(=O)(=O)Nc3ncccn3)cc2)CC1=O (stereo not given),4.79%
23,COC(=O)C(c1cccc(Nc2ncc(C)s2)n1)C1CCN(C(=O)c2cccc(F)c2F)CC1 (stereo not given),-3.23%
24,CCCOc1cccc(C(=O)Nc2ccc(S(=O)(=O)Nc3nc(C)cc(C)n3)cc2)c1,8.01%

row,SMILES,relative growth in counter assay
1,O=C(COc1cccc(Cl)c1)Nc1ccc(S(=O)(=O)Nc2ccccn2)cc1,-2.69%
2,Cc1ccc(C(=O)Nc2ccc(S(=O)(=O)Nc3ccccn3)cc2)cc1C,0.61%
3,COc1cc(NS(=O)(=O)c2ccc(NC(=O)COc3ccccc3C)cc2)nc(OC)n1,-13.3%
4,CC(=O)Oc1ccccc1N1C(=O)c2ccc(Oc3ccc(N)cc3)cc2C1=O,-0.98%
5,Cc1nc(Nc2cccc(C3CCN(C(=O)C(C)C)CC3)n2)sc1C,15.4%
6,O=C1CCC(N2C(=O)c3cccc(N4CCC(C(=O)O)CC4)c3C2=O)C(=O)N1 (stereo not given),3.86%
7,CC(=O)Nc1ccc(S(=O)(=O)N(C#N)c2nc(C)cc(C)n2)cc1,5.8%
8,Cc1nc(Nc2cccc(C3CCCN3C(=O)CCN3C(=O)CCNC3=O)n2)sc1C (stereo not given),-8.82%
9,O=[N+]([O-])c1ccc(S(=O)(=O)Nc2nc3ccccc3nc2Nc2ccccc2)cc1,8.01%
10,Cc1csc(Nc2cccc(C3CN(C(=O)Cn4nc(C)ccc4=O)CCO3)n2)n1 (stereo not given),-2.02%
11,CCCc1cnc(Nc2cccc(C3CCN(C(=O)[C@@H]4CCCCN4C(=O)OC(C)(C)C)CC3)n2)s1,-19.7%
12,Cc1cc(C)c2[nH]c3nc(SCC(=O)Nc4cc(Cl)ccc4C)nnc3c2c1,0.85%
13,Cc1ccc2[nH]c3nc(SCC(=O)Nc4cccc(Cl)c4)nnc3c2c1,-1.34%
14,O=C(Cc1ccc(F)cc1)N1CCCC1c1cccc(Nc2nccs2)n1 (stereo not given),6.68%
15,CC(=O)Nc1cc(C)c(S(=O)(=O)N2CCOC(c3cccc(Nc4ncc(C)s4)n3)C2)cc1C (stereo not given),10.9%
16,O=C(C1CCCCC1)N1CCC(c2cccc(Nc3ncc(Cl)s3)n2)CC1,-5.45%
17,C[C@@H](N)C(=O)N1CCC(CO)(c2cccc(Nc3ncc(-c4ccccc4)s3)n2)CC1,-21.8%
18,Cc1cc(C)nc(NS(=O)(=O)c2ccc(NC(=O)CSc3nccn3C)cc2)n1,2.1%
19,Cc1nc(Nc2cccc(C3CCCN3C(=O)CCc3nc4ccccc4[nH]3)n2)sc1C (stereo not given),7.88%
20,O=S(=O)(Nc1ccc(S(=O)(=O)Nc2ncccn2)cc1)c1ccccc1,-2.05%
21,Cc1ccc(CCC(=O)Nc2ccc(S(=O)(=O)Nc3ncccn3)cc2)cc1,8.72%
22,Nc1ccc(Oc2ccc3c(c2)C(=O)N(c2ccccc2)C3=O)cc1,-1.56%
23,O=C(/C=C/c1ccccc1)N1CCCC1c1csc(Nc2ccccn2)n1 (stereo not given),-3.28%
24,CC(C)(C)C(=O)N1CCOC(c2cccc(Nc3ncc(Cc4ccccc4)s3)n2)C1 (stereo not given),-3.84%

row,SMILES,relative growth in counter assay
1,CN(C)C(=O)CN1CCC(c2csc(Nc3ccccn3)n2)CC1,7.74%
2,CC(C)(C)C(=O)Nc1ccc(S(=O)(=O)Nc2ccccn2)cc1,-5.56%
3,COc1cc(NS(=O)(=O)c2ccc(NC(=O)c3ccc(-c4ccccc4)cc3)cc2)nc(OC)n1,-2.97%
4,CC1CCN(C(=O)CN2CCC(c3cccc(Nc4nccs4)n3)CC2)CC1,-0.36%
5,Cc1ccnc(NS(=O)(=O)c2ccc(NC(=O)CSc3nc(C)cc(=O)[nH]3)cc2)n1,-2.62%
6,CC(=O)N1CCC(Cc2cccc(Nc3nc(C)cs3)n2)CC1,24.3%
7,Cc1cnc(Nc2cccc(C3CN(C(=O)CCc4ccc(S(N)(=O)=O)cc4)CCO3)n2)s1 (stereo not given),6.65%
8,CCOCc1ccc(C(=O)N2CCOC(c3cccc(Nc4nccs4)n3)C2)cc1 (stereo not given),2.54%
9,Cc1cnc(Nc2cccc(C3CN(C(=O)C4(c5ccccc5)CCCC4)CCO3)n2)s1 (stereo not given),6.63%
10,CC(C)CC(C(=O)Nc1ccc(S(=O)(=O)Nc2ccccn2)cc1)N1C(=O)c2ccccc2C1=O (stereo not given),0.21%
11,CC1Cc2cc(CCC(=O)N3CCC(c4cccc(Nc5nccs5)n4)CC3)ccc2O1 (stereo not given),9.65%
12,Nc1ccc(S(=O)(=O)Nc2nccc(/C=C/c3ccc(Cl)cc3)n2)cc1,4.07%
13,Cc1cnc(Nc2cccc(C3(COC(=O)C4CCCCC4)CCN(C(=O)C4CCCCC4)CC3)n2)s1,2.81%
14,CCCC(=O)Nc1ccc(S(=O)(=O)Nc2nc(C)cc(C)n2)cc1,-9.14%
15,CCCc1cnc(Nc2cccc(C3CCN(C(=O)C(C)(C)NC(=O)OC(C)(C)C)CC3)n2)s1,-22.3%
16,Cc1csc(Nc2cccc(C3CCCN3C(=O)Cc3ccc(F)cc3)n2)n1 (stereo not given),10.1%
17,O=C(COc1ccc(Cl)cc1Cl)Nc1ccc(S(=O)(=O)Nc2ncccn2)cc1,7.22%
18,CCc1nnsc1C(=O)N1CCCC1c1cccc(Nc2nc(C)cs2)n1 (stereo not given),-0.34%
19,Cc1cnc(Nc2cccc(C3CCN(C(=O)C4(C)CCCCC4)CC3)n2)s1,-13.2%
20,COc1ccc(Cl)cc1NC(=O)CSc1nnc2c(n1)[nH]c1ccc(F)cc12,5.27%
21,CCCc1cnc(Nc2cccc(C3CCN(C(=O)C(C)(C)NC(=O)COC)CC3)n2)s1,-2.68%
22,Cc1ccc(CC(=O)N2CCOC(c3cccc(Nc4nc(C)c(C)s4)n3)C2)cc1C (stereo not given),17%
23,O=C(CSc1nnc2c(n1)[nH]c1ccccc12)Nc1ccc(F)cc1,15.9%
24,Cc1cnc(Nc2cccc(C3CN(C(=O)CNc4ccccc4)CCO3)n2)s1 (stereo not given),-19%

row,SMILES,relative growth in counter assay
1,Cc1ccc(Oc2cccc(N3C(=O)c4ccc(Oc5ccc(N)cc5)cc4C3=O)c2)cc1C,-3.99%
2,Cc1ccc(C)c(OCC(=O)Nc2ccc(S(=O)(=O)Nc3ncccn3)cc2)c1,-22.7%
3,CC(=O)Oc1cccc(N2C(=O)c3ccc(Oc4cccc(N)c4)cc3C2=O)c1,-1.77%
4,Cc1ccc2[nH]c3nc(SCC(=O)Nc4ccc(C)c(Cl)c4)nnc3c2c1,-28.4%
5,COC(=O)c1ccc(N2C(=O)c3ccc(Oc4cccc(N)c4)cc3C2=O)cc1,2.68%
6,Cc1noc(CCC(=O)N2CCOC(c3cccc(Nc4nc(C)c(C)s4)n3)C2)n1 (stereo not given),5.54%
7,Cc1ccc(OCCCC(=O)Nc2ccc(S(=O)(=O)Nc3ccccn3)cc2)cc1,6.85%
8,Cc1cccc(Nc2nc(-c3sc(NC(=O)c4ccccc4)nc3C)cs2)n1,60.5%
9,O=C(Nc1ccc(S(=O)(=O)Nc2ncccn2)cc1)C1CC(=O)N(c2ccc(Cl)cc2)C1 (stereo not given),2.5%
10,Cc1cnc(Nc2cccc(C3CCN(C(=O)C4(N)CCCCC4)CC3)n2)s1,-25.1%
11,Cc1ccc(C(=O)Nc2ccc(S(=O)(=O)Nc3cc(C)nc(C)n3)cc2)cc1,-2.2%
12,CC1(C)C=C(CC(=O)N2CCOC(c3cccc(Nc4nccs4)n3)C2)CC(C)(C)N1 (stereo not given),6.81%
13,Cc1cnc(Nc2cc(C3CCN(C(=O)/C=C/c4cnc[nH]4)CC3)ccn2)s1,-11.5%
14,COCCOCC(=O)Nc1ccc(S(=O)(=O)Nc2nc(C)cc(C)n2)cc1,-9.08%
15,Cc1cc(OCC(=O)Nc2ccc(S(=O)(=O)Nc3ncccn3)cc2)ccc1C(C)C,15.9%
16,CCN(CC)C(=O)CN1CCC(c2cccc(Nc3nccs3)n2)CC1,2.7%
17,Cc1ccn2cc(C(=O)N3CCCC3c3cccc(Nc4nc(C)c(C)s4)n3)nc2c1 (stereo not given),17.6%
18,O=C(c1cccc2cccnc12)N1CCCC1c1cccc(Nc2nccs2)n1 (stereo not given),-1.15%
19,Cc1ccc(S(=O)(=O)Nc2ccc(S(=O)(=O)Nc3ncccn3)cc2)cc1,3.78%
20,Cc1ccnc(NS(=O)(=O)c2ccc(NC(=O)COc3ccc(Cl)cc3)cc2)n1,4.78%
21,Cc1cnc(Nc2cccc(C3CCN(C(=O)C4CCC(=O)N4)CC3)n2)s1 (stereo not given),-24.6%
22,Cc1cccc(OCCCC(=O)Nc2ccc(S(=O)(=O)Nc3ncccn3)cc2)c1,1.93%
23,Cc1ccc(CC(=O)Nc2ccc(S(=O)(=O)Nc3ncccn3)cc2)cc1,-18.2%
